According to patent publication US6544989B2, “Benzazoles: benzoxazole, benzthiazole and benzimidazole derivatives” (Syngenta Limited, priority 1998, dated 2003):

What was measured:
Conditions in all cases: 500 ppm by weight; mortality assessed usually between three and five days after treatment
Spodoptera exigua = assay: Pesticidal test, Spodoptera exigua mortality
Procedure: The test procedure adopted with regard to each pest, except nematodes, was essentially the same and composed supporting a number of the pests on a medium which was usually a substrate, a host plant or a foodstuff on which the pests feed, and treating either or both the medium and the pests with a composition. Pest mortality was assessed usually between three and five days after treatment Knockdown of housefly (Musca domestica) was assessed 15 minutes after treatment

Myzus persicae = assay: Pesticidal test, Myzus persicae mortality
Tetranychus urticae = tested on: Tetranychus urticae
Heliothis virescens = tested on: Heliothis virescens
Musca domestica = tested on: Musca domestica

SMILES: C#CCN(C(=O)Cc1ccc2oc(CC(C)(C)C)nc2c1)c1snc(C)c1Cl [15(F3)]
- LAPHEG = Spodoptera exigua, grading of mortality (score) (Spodoptera exigua): 9 (9 indicates 80-100% mortality)
- MYZUPE = Myzus persicae, grading of mortality (score) (Myzus persicae): 9 (9 indicates 80-100% mortality)
- TETRUR = Tetranychus urticae, grading of mortality (score) (Tetranychus urticae): 9 (9 indicates 80-100% mortality)
- HELIVI = Heliothis virescens, grading of mortality (score) (Heliothis virescens): 9 (9 indicates 80-100% mortality)
- MUSCDO AK = Musca domestica (kill), grading of mortality (score) (Musca domestica): 0 (0 indicates less than 40% mortality)

SMILES: COCN(C(=O)Cc1ccc2oc(CC(C)(C)C)nc2c1)c1snc(C)c1Cl [15(K3)]
- LAPHEG = Spodoptera exigua, grading of mortality (score) (Spodoptera exigua): 5 (5 indicates 40-79% mortality)
- MYZUPE = Myzus persicae, grading of mortality (score) (Myzus persicae): 9 (9 indicates 80-100% mortality)
- TETRUR = Tetranychus urticae, grading of mortality (score) (Tetranychus urticae): 9 (9 indicates 80-100% mortality)
- HELIVI = Heliothis virescens, grading of mortality (score) (Heliothis virescens): 5 (5 indicates 40-79% mortality)
- MUSCDO AK = Musca domestica (kill), grading of mortality (score) (Musca domestica): 0 (0 indicates less than 40% mortality)

SMILES: CCOCN(C(=O)Cc1ccc2oc(CC(C)(C)C)nc2c1)c1snc(C)c1Cl [15(L3)]
- LAPHEG = Spodoptera exigua, grading of mortality (score) (Spodoptera exigua): 5 (5 indicates 40-79% mortality)
- MYZUPE = Myzus persicae, grading of mortality (score) (Myzus persicae): 9 (9 indicates 80-100% mortality)
- TETRUR = Tetranychus urticae, grading of mortality (score) (Tetranychus urticae): 9 (9 indicates 80-100% mortality)
- HELIVI = Heliothis virescens, grading of mortality (score) (Heliothis virescens): 9 (9 indicates 80-100% mortality)
- MUSCDO AK = Musca domestica (kill), grading of mortality (score) (Musca domestica): 9 (9 indicates 80-100% mortality)

SMILES: COCCOCN(C(=O)Cc1ccc2oc(CC(C)(C)C)nc2c1)c1snc(C)c1Cl [15(M3)]
- LAPHEG = Spodoptera exigua, grading of mortality (score) (Spodoptera exigua): 5 (5 indicates 40-79% mortality)
- MYZUPE = Myzus persicae, grading of mortality (score) (Myzus persicae): 9 (9 indicates 80-100% mortality)
- TETRUR = Tetranychus urticae, grading of mortality (score) (Tetranychus urticae): 9 (9 indicates 80-100% mortality)
- HELIVI = Heliothis virescens, grading of mortality (score) (Heliothis virescens): 0 (0 indicates less than 40% mortality)
- MUSCDO AK = Musca domestica (kill), grading of mortality (score) (Musca domestica): 0 (0 indicates less than 40% mortality)

SMILES: Cc1nsc(NC(=S)Cc2ccc3oc(CC(C)(C)C)nc3c2)c1Cl [15(V3)]
- LAPHEG = Spodoptera exigua, grading of mortality (score) (Spodoptera exigua): 0 (0 indicates less than 40% mortality)
- MYZUPE = Myzus persicae, grading of mortality (score) (Myzus persicae): 5 (5 indicates 40-79% mortality)
- TETRUR = Tetranychus urticae, grading of mortality (score) (Tetranychus urticae): 9 (9 indicates 80-100% mortality)
- HELIVI = Heliothis virescens, grading of mortality (score) (Heliothis virescens): 0 (0 indicates less than 40% mortality)
- MUSCDO AK = Musca domestica (kill), grading of mortality (score) (Musca domestica): 0 (0 indicates less than 40% mortality)

SMILES: Cc1nsc(NC(=O)Cc2ccc3oc(C4CCCC4)nc3c2)c1Cl [28(A3)]
- LAPHEG = Spodoptera exigua, grading of mortality (score) (Spodoptera exigua): 5 (5 indicates 40-79% mortality)
- MYZUPE = Myzus persicae, grading of mortality (score) (Myzus persicae): 9 (9 indicates 80-100% mortality)
- TETRUR = Tetranychus urticae, grading of mortality (score) (Tetranychus urticae): 9 (9 indicates 80-100% mortality)
- HELIVI = Heliothis virescens, grading of mortality (score) (Heliothis virescens): 9 (9 indicates 80-100% mortality)
- MUSCDO AK = Musca domestica (kill), grading of mortality (score) (Musca domestica): 9 (9 indicates 80-100% mortality)

SMILES: Cc1nsc(NC(=O)Cc2ccc3oc(CC4CC4)nc3c2)c1Cl [41(A3)]
- LAPHEG = Spodoptera exigua, grading of mortality (score) (Spodoptera exigua): 5 (5 indicates 40-79% mortality)
- MYZUPE = Myzus persicae, grading of mortality (score) (Myzus persicae): 9 (9 indicates 80-100% mortality)
- TETRUR = Tetranychus urticae, grading of mortality (score) (Tetranychus urticae): 5 (5 indicates 40-79% mortality)
- HELIVI = Heliothis virescens, grading of mortality (score) (Heliothis virescens): 5 (5 indicates 40-79% mortality)
- MUSCDO AK = Musca domestica (kill), grading of mortality (score) (Musca domestica): 9 (9 indicates 80-100% mortality)

SMILES: CC=Cc1nc2cc(CC(=O)Nc3snc(C)c3Cl)ccc2o1 [45(A3)]
- LAPHEG = Spodoptera exigua, grading of mortality (score) (Spodoptera exigua): 9 (9 indicates 80-100% mortality)
- MYZUPE = Myzus persicae, grading of mortality (score) (Myzus persicae): 9 (9 indicates 80-100% mortality)
- TETRUR = Tetranychus urticae, grading of mortality (score) (Tetranychus urticae): 5 (5 indicates 40-79% mortality)
- HELIVI = Heliothis virescens, grading of mortality (score) (Heliothis virescens): 5 (5 indicates 40-79% mortality)
- MUSCDO AK = Musca domestica (kill), grading of mortality (score) (Musca domestica): 9 (9 indicates 80-100% mortality)

SMILES: CC(C)=Cc1nc2cc(CC(=O)Nc3snc(C)c3Cl)ccc2o1 [46(A3)]
- LAPHEG = Spodoptera exigua, grading of mortality (score) (Spodoptera exigua): 5 (5 indicates 40-79% mortality)
- MYZUPE = Myzus persicae, grading of mortality (score) (Myzus persicae): 9 (9 indicates 80-100% mortality)
- TETRUR = Tetranychus urticae, grading of mortality (score) (Tetranychus urticae): 5 (5 indicates 40-79% mortality)
- HELIVI = Heliothis virescens, grading of mortality (score) (Heliothis virescens): 0 (0 indicates less than 40% mortality)
- MUSCDO AK = Musca domestica (kill), grading of mortality (score) (Musca domestica): 5 (5 indicates 40-79% mortality)
